Measurements published in the supplement of paper PMC3334620.
Whole data set: some 33,000 sequences, median “E-score (-0.5 to 0.5)” near -0.036, cut for the highest 2% near 0.37. The list shows a part of the results.

Each sequence was assayed against T1, Yer064c (UniProt P40041) (assay: PBM E-score (8-mer binding enrichment) (E-score (-0.5 to 0.5)); higher = stronger / more preferred TF binding; most listed sequences are background and not binding sites). Conditions: protein concentration: 200 nM; construct: GST-full length.
T1 sequence: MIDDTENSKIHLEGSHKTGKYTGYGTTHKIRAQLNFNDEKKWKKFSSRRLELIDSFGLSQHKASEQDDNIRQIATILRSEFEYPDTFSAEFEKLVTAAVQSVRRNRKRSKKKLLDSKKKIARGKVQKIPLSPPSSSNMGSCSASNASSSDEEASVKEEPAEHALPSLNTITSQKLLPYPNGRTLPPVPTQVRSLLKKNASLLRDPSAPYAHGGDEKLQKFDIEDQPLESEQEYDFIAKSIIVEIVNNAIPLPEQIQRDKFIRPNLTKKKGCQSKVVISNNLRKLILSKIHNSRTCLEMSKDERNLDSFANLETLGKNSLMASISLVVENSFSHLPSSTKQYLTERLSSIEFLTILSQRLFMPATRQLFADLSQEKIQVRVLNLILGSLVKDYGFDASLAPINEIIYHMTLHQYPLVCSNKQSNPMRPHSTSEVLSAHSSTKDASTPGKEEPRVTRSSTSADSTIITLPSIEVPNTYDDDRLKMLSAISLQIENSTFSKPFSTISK
How it was run: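 Yeast transcription factors carrying a GST tag, as full-length proteins or DNA-binding domains, were produced by PURExpress in vitro transcription/translation. About 100-200 nM protein was applied to universal all-10-mer Agilent arrays, double-stranded by primer extension on fresh or once-stripped slides. Bound protein was detected with fluorescent anti-GST, and scans were normalised with masliner. The Universal PBM Analysis Suite gave each ungapped eight-base word, pooled with its reverse complement, an E-score, a modified Wilcoxon-Mann-Whitney statistic.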
CATATCTA was tested, and the “PBM E-score” value was 0.205.
For TGTGCAAA, the “PBM E-score” value was 0.0276.
For CGTCTTAC, the “PBM E-score” value was -0.141.
For CCCTTACG, the “PBM E-score” value was -0.14.
For CCGAAATC, the “PBM E-score” value was 0.0998.
With AGCGGGTA the “PBM E-score” value was -0.0553.
In the case of AGACGCAA, the “PBM E-score” value is reported as -0.121.
For ATCGCCTG, the “PBM E-score” value was -0.012.
In the case of CGGGCGAG, the “PBM E-score” value is reported as -0.0528.
For GCAGAGGC, the “PBM E-score” value was -0.146.
With AAATAACG the “PBM E-score” value was -0.0624.
With GGGCAGAA the “PBM E-score” value was -0.0543.
GGATTCTA was tested, and the “PBM E-score” value was 0.176.
GGATGTAA was tested, and the “PBM E-score” value was -0.102.
In the case of CACTTTAG, the “PBM E-score” value is reported as -0.0328.
With ATTGAGAC the “PBM E-score” value was 0.302.
In the case of CTCGTAGC, the “PBM E-score” value is reported as -0.0323.
In the case of ATCTGTTC, the “PBM E-score” value is reported as -0.149.
In the case of ATATTTGC, the “PBM E-score” value is reported as -0.18.
With AGCAGATC the “PBM E-score” value was 0.112.
ATCGCAGG was tested, and the “PBM E-score” value was 0.0211.
GAGCGTGC was tested, and the “PBM E-score” value was -0.0384.
With GCCAGCAC the “PBM E-score” value was -0.109.
For GTTAGGAA, the “PBM E-score” value was -0.118.
For CGCACCCG, the “PBM E-score” value was -0.11.
In the case of TCGACGAA, the “PBM E-score” value is reported as -0.00207.
With TCCGGAAA the “PBM E-score” value was -0.0818.
For ATGCCCGC, the “PBM E-score” value was -0.206.
For CACATGAG, the “PBM E-score” value was 0.149.
In the case of ACTTAAAC, the “PBM E-score” value is reported as 0.194.
For TAGACGCA, the “PBM E-score” value was -0.147.
In the case of CGAGCGCA, the “PBM E-score” value is reported as -0.142.
In the case of CAACTACC, the “PBM E-score” value is reported as -0.163.
For AGCGAGGA, the “PBM E-score” value was -0.139.
With CCGGGCGC the “PBM E-score” value was -0.315.
In the case of CATACGGA, the “PBM E-score” value is reported as -0.0462.
CATGAAAG was tested, and the “PBM E-score” value was -0.00325.
In the case of AGGGCAAA, the “PBM E-score” value is reported as -0.174.
With ATGTGTTC the “PBM E-score” value was 0.1.
With GCGCAAAC the “PBM E-score” value was -0.25.
GCTGCAAC was tested, and the “PBM E-score” value was -0.133.
In the case of CCGGGCGA, the “PBM E-score” value is reported as -0.0674.
AAGCAGGG was tested, and the “PBM E-score” value was -0.13.
For AGGACGGA, the “PBM E-score” value was -0.103.
With GCATAATA the “PBM E-score” value was 0.0384.
With AGCGTCGC the “PBM E-score” value was 0.0021.
With ATGACACG the “PBM E-score” value was 0.00041.
In the case of AAACCGAG, the “PBM E-score” value is reported as 0.0414.
With GGTGGGGA the “PBM E-score” value was -0.0167.
With AAACTGTA the “PBM E-score” value was -0.0246.
For ACAATTTG, the “PBM E-score” value was -0.112.
In the case of AAACGGCG, the “PBM E-score” value is reported as -0.109.
In the case of CACTAAAC, the “PBM E-score” value is reported as 0.108.
For AGTGTAAT, the “PBM E-score” value was 0.114.
In the case of CCACGAGG, the “PBM E-score” value is reported as -0.165.
AAATATAA was tested, and the “PBM E-score” value was 0.147.
For CTGTCCAC, the “PBM E-score” value was -0.0958.
In the case of ACTACAGC, the “PBM E-score” value is reported as 0.0977.
With ATCGATTC the “PBM E-score” value was 0.0522.
In the case of GGGCTGAA, the “PBM E-score” value is reported as -0.0325.
With CGTTGCCA the “PBM E-score” value was -0.112.
With CACACACG the “PBM E-score” value was 0.178.
In the case of AGAGATAA, the “PBM E-score” value is reported as -0.0182.
For AACGCAGA, the “PBM E-score” value was 0.199.
CGTGGACC was tested, and the “PBM E-score” value was -0.213.
With AGTTTTTC the “PBM E-score” value was -0.205.
With ATCGGCTG the “PBM E-score” value was -0.0271.
With GTGTCCCA the “PBM E-score” value was -0.21.
For GGAGGCAA, the “PBM E-score” value was -0.174.
In the case of CAGCGAAC, the “PBM E-score” value is reported as -0.119.
With AGGTCGAG the “PBM E-score” value was -0.115.
In the case of GCGCAATA, the “PBM E-score” value is reported as -0.0549.
GGCACATA was tested, and the “PBM E-score” value was -0.0326.
AGAAGGGC was tested, and the “PBM E-score” value was -0.138.
For ATCAGGGG, the “PBM E-score” value was -0.00776.
For GTAATATA, the “PBM E-score” value was 0.141.
CGGGCACG was tested, and the “PBM E-score” value was -0.147.
In the case of AACCTTCT, the “PBM E-score” value is reported as -0.151.
With ACGTCGCA the “PBM E-score” value was -0.227.
ACTGGGCA was tested, and the “PBM E-score” value was -0.289.
For GTATGCTA, the “PBM E-score” value was -0.19.
CACCACAA was tested, and the “PBM E-score” value was -0.0358.
With CCGCTAGG the “PBM E-score” value was -0.0177.
AATTTCAA was tested, and the “PBM E-score” value was 0.0526.
With ACAAACCT the “PBM E-score” value was -0.187.
GTAAGAAC was tested, and the “PBM E-score” value was 0.106.
CTCGTAAC was tested, and the “PBM E-score” value was 0.0792.
For ATATAAGG, the “PBM E-score” value was -0.053.
With TATCACGA the “PBM E-score” value was 0.0815.
In the case of CCATCAGG, the “PBM E-score” value is reported as -0.11.
CGGACACC was tested, and the “PBM E-score” value was -0.138.
In the case of TAGTCTGA, the “PBM E-score” value is reported as 0.362.
With GTCCGACA the “PBM E-score” value was 0.0427.
With GGGCGTTA the “PBM E-score” value was -0.138.
